# Screen size: about 110,000 compounds; about 230 (0.21%) showed an effect of 50% or more. The list shows a part of the results.
# Biological target: DPAP1 (Plasmodium falciparum, UniProt Q8IIJ9)
# Assay: primary screen, percent inhibition; read by cleavage of a fluorogenic dipeptide substrate; higher = more effect of the substance
# Set-up: species or system P. falciparum D10 trophozoite lysates; single well
# 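Note: 30 min substrate incubation versus DMSO and 10 µM JCP410 controls.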
# DPAP1, sequence (Q8IIJ9 whole entry, looked up): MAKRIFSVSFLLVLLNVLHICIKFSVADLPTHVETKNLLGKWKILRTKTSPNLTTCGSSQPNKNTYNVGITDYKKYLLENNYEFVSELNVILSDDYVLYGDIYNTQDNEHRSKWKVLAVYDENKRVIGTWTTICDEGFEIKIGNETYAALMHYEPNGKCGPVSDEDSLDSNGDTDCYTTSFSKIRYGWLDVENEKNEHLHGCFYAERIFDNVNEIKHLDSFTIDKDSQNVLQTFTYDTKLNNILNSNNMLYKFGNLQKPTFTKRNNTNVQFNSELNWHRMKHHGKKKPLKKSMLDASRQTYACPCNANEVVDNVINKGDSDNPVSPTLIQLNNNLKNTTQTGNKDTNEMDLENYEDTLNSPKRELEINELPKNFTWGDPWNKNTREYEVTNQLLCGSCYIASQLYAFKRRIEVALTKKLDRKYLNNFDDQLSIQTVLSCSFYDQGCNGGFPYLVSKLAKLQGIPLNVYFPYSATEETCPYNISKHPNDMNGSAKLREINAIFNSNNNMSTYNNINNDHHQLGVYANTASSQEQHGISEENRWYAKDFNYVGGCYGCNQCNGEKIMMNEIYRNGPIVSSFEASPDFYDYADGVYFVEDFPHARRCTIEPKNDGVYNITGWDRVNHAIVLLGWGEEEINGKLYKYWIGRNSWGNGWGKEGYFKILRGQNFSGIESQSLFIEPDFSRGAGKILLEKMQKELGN
row,SMILES,% Inhibition @ 10 uM
1,Cc1ccc(-n2c3c(c(=O)[nH]c2=O)C(C(F)(F)F)(C(F)(F)F)NC(=O)N3)cc1,-2.73%
2,COc1ccc(C(=O)Nc2cc(C)on2)cc1,-7.23%
3,O=C(C1=C(O)C(=O)N(Cc2ccco2)C1c1cccs1)c1cccs1 (stereo not shown),-11.7%
4,Cc1cc(C)n(CN2C(=O)c3ccccc3C2=O)n1,-3.62%
5,CC(=O)c1cccc(NC(=O)COc2cc(Cl)ccc2Cl)c1,-7.09%
6,CC1CCc2c(sc(NC(=O)COc3c(F)c(F)cc(F)c3F)c2C(N)=O)C1 (stereo not shown),4.01%
7,C(=C\c1ccccc1)/C=N/n1cnnc1,13.2%
8,COc1ccc(CCNc2cnc(O)nc2O)cc1OC,-3.33%
9,COc1ccc(CN2CCCCC2)c(OC)c1C,-5.42%
10,Nc1nc2nc(-c3ccc(F)cc3)cc(C(F)(F)F)n2n1,-1.94%
11,O=C1C2C3CCC(O3)C2C(=O)N1c1ccc(Br)cn1 (stereo not shown),3.98%
12,Cc1cccc(C(=O)Nc2ccc(C)c(Cl)c2)c1,3.85%
13,CC1(C)CC(=O)C(C(C2=C(O)CC(C)(C)CC2=O)c2ccc([N+](=O)[O-])cc2)C(=O)C1 (stereo not shown),-5.23%
14,Cc1nnc(NC(=O)c2ccc(NC(=O)C(F)(F)F)cc2)s1,3.01%
15,CCCCNC(=O)C1CCN(S(=O)(=O)c2c(C)cc(C)cc2C)CC1,-6.37%
16,C=CCNC(=O)C1CCN(S(=O)(=O)N2CCC3(CC2)OCCO3)CC1,-2.99%
17,O=C(CSc1nc2ccccc2o1)NC1CCCC1,0.815%
18,COc1cc(C(c2c(O)n[nH]c2C)c2c(O)n[nH]c2C)cc(Cl)c1OCC(=O)O,5.44%
19,Cc1cccc2sc(N(CCN(C)C)C(=O)C3COc4ccccc4O3)nc12 (stereo not shown),-2.5%
20,CCC(C)N(CCNC(=O)C1CCN(C(=O)c2cc3sccc3n2C)CC1)C1CCCCC1 (stereo not shown),-1.58%
21,Cc1c(C(=O)N2CCCCC2)sc(NC(=O)Cc2ccccc2)c1C#N,1.13%
22,COc1ccc(CCNS(=O)(=O)c2ccc(C)cc2)c(OC)c1OC,-2.75%
23,O=C(O)c1cc(Cl)ccc1/N=C/C1=C(O)c2ccccc2C1=O,-6.27%
24,Oc1cccc(C2NCCc3c2[nH]c2ccccc32)c1 (stereo not shown),-1.8%
25,N#CC1=C(N)Oc2[nH]nc(C(F)(F)F)c2C1c1ccc(Br)cc1 (stereo not shown),0.726%

row,SMILES,% Inhibition @ 10 uM
1,CC1CCc2c(sc(NC(=O)c3cnccn3)c2C#N)C1 (stereo not shown),-6.34%
2,O=C(NC(C(=O)O)C12CC3CC(CC(C3)C1)C2)c1ccccc1 (stereo not shown),-1.77%
3,CC(CCc1ccccc1)N1CCN(c2ccc(F)cc2)CC1 (stereo not shown),-1.82%
4,Cc1ccccc1OCC(=O)Nc1ccc(CC#N)cc1,-1.89%
5,COCCNC(=O)Cn1ncc2ccc(C)cc21,0.596%
6,O=C(CSc1nc(-c2ccc(Br)cc2)c[nH]1)Nc1ccccc1,-6.36%
7,CCCCCCCC(=O)NC(C)Cc1c[nH]c2ccccc12 (stereo not shown),-4.18%
8,C/C=C/Cn1c(SC(C)C)nc2c1c(=O)[nH]c(=O)n2C,-2.78%
9,COc1ccc(CCN2C(=O)C(NC(C)=O)(C(F)(F)F)C3=C2CC(C)(C)CC3=O)cc1OC (stereo not shown),0.221%
10,O=C(Nc1nc2ccccc2s1)c1cccnc1,2.67%
11,CCOC(=O)c1c(NC(=O)Cc2ccccc2)sc2c1CCC(C)C2 (stereo not shown),9.09%
12,CN(C)CCNC1C2CC3CC(C2)CC1C3 (stereo not shown),1.57%
13,N#Cc1ccc(S(=O)(=O)N2CCC(Oc3ccc(-n4cnnn4)cc3)CC2)cc1,0.635%
14,CCOC(=O)C1=C(N)Oc2c(c(=O)oc3ccccc23)C1c1ccc(Cl)c(Cl)c1 (stereo not shown),-2.51%
15,O=C(O)C1C2CCC(C2)C1C(=O)NCc1ccco1 (stereo not shown),-6.27%
16,CC(C)(C)CC(=O)Nc1nc2ccccc2s1,-0.996%
17,COc1ccc(-c2cc(C(F)(F)F)nc(SCC(=O)Nc3cccc(C)n3)n2)cc1OC,6.46%
18,CNC(=O)c1ccc(CSc2nc3cccnc3n2Cc2ccc(F)cc2)cc1,-4.16%
19,COc1ccc(C(=O)Nc2ccc(S(=O)(=O)Nc3cc(C)on3)cc2)cc1Br,-10.2%
20,Clc1ccc(OCCCCN2CCOCC2)cc1,-9.96%
21,Cc1ccc(S(=O)(=O)N2CC(C)OC(C)C2)cc1 (stereo not shown),2.08%
22,Cc1ccc(N2C(=O)CC(N3CCCC4CCCCC43)C2=O)cc1 (stereo not shown),-0.0938%
23,COC(=O)c1ccc2c(c1)C(=O)/C(=C/c1cn(-c3ccccc3)nc1-c1ccco1)O2,-1.37%
24,COCCNC(=O)CCc1c(C)nc2nc(-c3ccc(Cl)cc3Cl)nn2c1C,-4.24%
25,N#Cc1ccccc1OCC(=O)Nc1ccc(OC(F)(F)F)cc1,3.57%

row,SMILES,% Inhibition @ 10 uM
1,COc1ccc(N2C(=O)c3ccccc3C2=O)cc1NC(=O)c1ccccc1,-0.891%
2,COCCNc1ncnc2oc(C)c(C(=O)O)c12,-9.6%
3,COC(=O)c1ccc(-c2ccco2)n1CC(=O)NC(C)c1ccccc1 (stereo not shown),5.82%
4,CCOC(=O)c1cc(C(=O)NC(C)c2ccccc2)c(C)nc1O (stereo not shown),-0.597%
5,c1ccc2c(CNC3CCCC3)c[nH]c2c1,2.65%
6,CC1CCN(c2ncnc3c2sc2nc(C(C)C)c4c(c23)CC(C)(C)OC4)CC1,2.1%
7,O=c1c2c3c(sc2[nH]c(=S)n1-c1ccccc1)CC1(CCCCC1)CC3,0.774%
8,Cc1c(Cl)cccc1-n1nc(C)c2c(C(=O)NCc3ccco3)cc(C3CC3)nc21,-3.56%
9,O=C(Nc1ccc(O)cc1)/C(=C/c1ccco1)NC(=O)c1ccccc1,-0.661%
10,COc1ccc(/C=C2/N=C(c3cccc4ccccc34)OC2=O)c(OC)c1,-18.5%
11,Cc1cc(C(=O)N2N=C(C(F)F)CC2(O)C(F)F)c2ccccc2n1 (stereo not shown),3.52%
12,COc1ccc2ccccc2c1/C=C1\N=C(c2cccc(C)c2)OC1=O,5.94%
13,Cc1cc(/C=C2\SC(=O)N(Cc3ccc(F)cc3)C2=O)c(C)n1-c1cccnc1,0.955%
14,CC(C)Cc1c(C#N)c(S)nc2c1CCCC2,90.5%
15,O=C(Nc1ccccc1C(=O)N1CCN(CCO)CC1)c1ccc(Cl)cc1Cl,1.03%
16,c1ccc(COc2ccc(CN3CCSCC3)cc2)cc1,0.217%
17,COc1ccc(CNc2oc(COc3ccc(Cl)cc3)nc2C#N)cc1,1.43%
18,Cc1nc2sc3c(ncn4c5ccccc5nc34)c2c(C)c1Cl,3.81%
19,O=C(CCN1C(=O)c2ccncc2C1=O)NCc1ccc(Cl)cc1,-4.67%
20,O=c1cc(-c2ccccc2)n(-c2ccccc2)[nH]1,0.716%
21,Cc1cc(C)c(OCC(O)CN2CCC(C)CC2)c(C)c1 (stereo not shown),-10.8%
22,Oc1ccc(O)c2c1C1c3ccccc3C2c2ccccc21,-0.0369%
23,CC(C)Cn1cc(NC(=O)Nc2cccnc2)c2ccccc2c1=O,-3.08%
24,CCOc1ccccc1C(=O)Nc1cc(OC)ccc1OC,-5.82%
25,O=S(=O)(NCCSCc1ccccc1)c1ccc2c(c1)OCCO2,-3.9%

row,SMILES,% Inhibition @ 10 uM
1,O=C(CCC(=O)c1ccc(F)cc1)Nc1cnc2ccccc2c1,1.88%
2,CCCC[C@H](NC(=O)OCc1ccccc1)C(=O)NCC#N,-11%
3,N#CC1=C(N)Oc2[nH]nc(-c3ccccc3)c2C1c1ccc2c(c1)OCO2 (stereo not shown),0.751%
4,CCOc1ccc(OCc2ccc(C(=O)N3CCCCC3)o2)cc1,-2.97%
5,COCCO/C(O)=C1/C(C)=NC(=S)NC1c1ccc(C)cc1 (stereo not shown),-5.63%
6,COc1cc(/C=C2\C(=N)N3N=C(S(C)(=O)=O)SC3=NC2=O)ccc1O,13.6%
7,CCC1CCc2c(sc(NC(=O)c3cccnc3)c2C(N)=O)C1 (stereo not shown),2.54%
8,CO/C(O)=C1\C(C)=NC2=C(C(=O)CC(c3ccccc3)C2)C1c1cccc([N+](=O)[O-])c1 (stereo not shown),3.18%
9,O=C(Nc1cccc2n[se]nc12)c1ccc2c(c1)OCO2,-2.5%
10,COc1ccc(CNc2nc3ccccc3c3nc(CCc4c(C)n[nH]c4C)nn23)cc1,-2.42%
11,O=C(CCc1nnc2ccc(N3CCCC3)nn12)N1CCN(c2ccccn2)CC1,1.39%
12,CCCN(CCC)C(=O)CS(=O)Cc1nc(-c2ccc(OC)cc2)oc1C (stereo not shown),-2.85%
13,Cc1ccc(CN2N=NC3C(=O)NC(=O)C32)cc1 (stereo not shown),-0.411%
14,CO/C(O)=C1/C(C)=NC2=C(C(=O)CC(c3ccccc3)C2)C1c1ccc(OC)cc1 (stereo not shown),-2.87%
15,O=C(NCCc1ccccc1)c1cc([N+](=O)[O-])cc([N+](=O)[O-])c1,-0.239%
16,CCOc1ccc(-c2[nH]nc3c2C(c2c[nH]nc2-c2ccc(F)cc2)C(C#N)=C(N)O3)cc1 (stereo not shown),0.289%
17,Cc1oc(-c2ccc(Cl)cc2)nc1CN1CCCC(C(=O)N2CCN(C(=O)c3ccco3)CC2)C1 (stereo not shown),-4.71%
18,CC(C)CC(NC(=O)c1ccc(N)nc1)C(=O)NCC#N (stereo not shown),-3.97%
19,CC(C)(C)c1ccc(C(=O)Nc2ccccc2C(N)=O)cc1Br,4.49%
20,Cc1ccc(Cn2nc(C)c(NC(=O)NC34CC5CC(CC(C5)C3)C4)c2C)cc1,-5.29%
21,CN(C(=O)COc1ccc([N+](=O)[O-])cc1)C1CCCCC1,0.634%
22,C#CCOc1ccc(/C=C2/NC(=O)NC2=O)cc1,-3.06%
23,CCOC(=O)c1c(S(=O)(=O)NCc2ccc(F)cc2)c(C)n(C)c1C,4.03%
24,CCOC(=O)N1CCC(/N=c2/c(N3CCN(Cc4ccccc4)CC3)c(O)c2=O)CC1,-1.44%
25,COc1cc(/C=C2/SC(=O)N(CC(=O)N3CCOCC3)C2=O)ccc1OCc1ccncc1,2.65%
